We go through 22 molecules from PMC12136788.

The list shows a part of the results.

To fix the notation:
T1: UNK ZnF1-3 (human, UniProt Q9C0B0 31-174)
T1 sequence: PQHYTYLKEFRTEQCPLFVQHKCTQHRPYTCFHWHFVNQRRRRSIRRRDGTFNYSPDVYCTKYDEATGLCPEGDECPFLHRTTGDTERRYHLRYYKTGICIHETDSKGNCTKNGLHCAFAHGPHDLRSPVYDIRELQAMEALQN

B1: chr1:114133195:114133196:+_ENSG00000081026_ENST00000369615|hu_mus|FALSE|FALSE (ssRNA)
RNA: GGGAGUUCUACAGUCCGACGAUCCAUUUCCCAGUUUUUGGGCAGCGGUUCCAGAUUCUCAUCUCUCAUCAUAUAAUUUCUAAAGUCCAUGGAGCUAUUUGUUUGGUUAUAACUUGGAACAGUCUUCAUCCAGCAGUCAGAUGUCAACAGAGGAUUGAGCAUCA
B2: chr2:152658766:152658767:-_ENSG00000162980_ENST00000295087|hu_mus|motif|central (ssRNA)
RNA: GGGAGUUCUACAGUCCGACGAUCAUUCUUAAAUUCAUUUUAACUGUUUGUCAUGUAAUUUAAUACCUAAAAAGGUUGCAGCGGAAUUAAUUACUACUAUUUAUAGGAUGUUACCUCUUUGGGUAGAUAUAUUUCACACCAUGACAACAGAGGAUUGAGCAUCA
B3: chr5:31258465:31258466:-_ENSMUSG00000045302_ENSMUST00000155946|mus_mus|FALSE|FALSE (ssRNA)
RNA: GGGAGUUCUACAGUCCGACGAUCCCAUGGGCCUCCUUCACAUAAUACAGGCGCUGGGGGAGAAAGCAGUGAGGAAAGCCUAGUUGGAAGCUACCUUCGGGGAAACACGCUCCACAGUCCUAACAGGCUUCCCCUGUGGACUGGCAACAGAGGAUUGAGCAUCA
B4: 90035977_90036097_484_CDS_ENSG00000070961_ENST00000261173|human|control|control (ssRNA)
RNA: GGGAGUUCUACAGUCCGACGAUCUGAUACUAUGGCUGCAAUUUCUAAUAUAAUUAAAGUGACAUCUUGUAAUGCUUCCCAUACUAAUUGAAGAAAGGUUUUUGGCUUUUUAGGAGGUAUAAAAUUCUUUCCAAACACUGCUUCCAACAGAGGAUUGAGCAUCA
B5: 144733308_144733428_1415_CDS_ENSG00000183309_ENST00000501748|human|control|control (ssRNA)
RNA: GGGAGUUCUACAGUCCGACGAUCACUGCACACAUAGGGCUUUUCUCCAGUGUGAAUAAUCUGGUGCAGAAGCAGCUUGGAGCUCUGGAUGAAGGCUUUCCCACAGUCUUUACAUUCGAAGGGCCUGUCCCCAGAGUGGAUCUUCAACAGAGGAUUGAGCAUCA
B6: 107454094_107460476_527_3pUTR_ENSMUSG00000020721_ENSMUST00000106746|mouse|control|control (ssRNA)
RNA: GGGAGUUCUACAGUCCGACGAUCUACUCGUUGCUGUCUCUGUUUCUGUGAGAAGUGUCUUUAGUCUUGUCAAAUCUUUCGUUACCAUCCCAUUCAGAGACUCCCCUGACAGUGACUUGGCAAGGAUGGAGGACACAAGCUGGACAACAGAGGAUUGAGCAUCA
B7: 54572153_54572273_469_CDS_ENSMUSG00000061559_ENSMUST00000051822|mouse|control|control (ssRNA)
RNA: GGGAGUUCUACAGUCCGACGAUCUUUUCCUCUAGUGUCCAAAGAAUAUUCUUUUUUUCCACUUUCCACACCAAAAAUGUUCACUUUCCCCAUGUGAGUUCCUGUGGCCAGAUACUGGGAGUCAGGAGAAAAUGCCAAAGUCCACAACAGAGGAUUGAGCAUCA
B8: chr9:110092072:110092073:+_ENSG00000119318_ENST00000416373|hu_mus|motif|central (ssRNA)
RNA: GGGAGUUCUACAGUCCGACGAUCAACUGUAUGUAUCCCUGCCCUAUAUCCUAGCUCCCCACCCCCACCCCCACCAACCGGCGGCCGUAUACCAAAUAUUGUGGAUAUGAGCCCAAGUCACCCCAGACAAUCCAGUGAACAAGGCAACAGAGGAUUGAGCAUCA
B9: 123892754_123893134_904_3pUTR_ENSMUSG00000038342_ENSMUST00000068237|mouse|control|control (ssRNA)
RNA: GGGAGUUCUACAGUCCGACGAUCCAUGAGCAUGUCUGUGUCCAGCAGUGAGUCCUCCUCCAUGGGGACUGGGGUUUUCCAGCCAUCCCCAUGUUUAUGCCAAUACAGCAUGUCAUCGUCCUGGGCCAGGCUAGAAAGGUCCUCCAACAGAGGAUUGAGCAUCA
B10: 10828398_10828887_507_CDS_ENSG00000110321_ENST00000339995|human|control|control (ssRNA)
RNA: GGGAGUUCUACAGUCCGACGAUCUGCACCCCUACUUCCUCCUCCGCCCGAAGAAGCACUGAAACGAGAAGCACCCCCUUCUGCAAUCGCACUCUCCACUUUGGCGGCUUGACAACGAAGAAUCUUCAAAAGAAUAAUAUUAAUCAACAGAGGAUUGAGCAUCA
B11: chr13:30086970:30086971:-_ENSG00000139514_ENST00000380752|hu_mus|FALSE|FALSE (ssRNA)
RNA: GGGAGUUCUACAGUCCGACGAUCAGGCCCUGUGUAGGCUGGGGAAGUGUGCUACCACUAGGCUACACGCCUGUCCAGCCCCACUAACUCUUCCAUUCUCAAGAAUCUUCCAAAGCAGAGGAAAGACAGGGCCAUCAGUCUACCCAACAGAGGAUUGAGCAUCA
B12: 42180882_42181002_497_3pUTR_ENSMUSG00000036295_ENSMUST00000043884|mouse|control|control (ssRNA)
RNA: GGGAGUUCUACAGUCCGACGAUCUUGGAGUGGCGUGUCCUUCAUCUUAGCUUUUGUCUUCAGAAAGUUAACAGGCCCUUAAGGAUUCCAGUCACAGCCAGUAAGUUCAGUAGGAGCUGACUGAUGAGGGAAGUAUUUGCAUUUCAACAGAGGAUUGAGCAUCA
B13: chr4:144460044:144460045:+_ENSG00000153147_ENST00000283131|hu_mus|hu_hu_hu_mus_False|58_68 (ssRNA)
RNA: GGGAGUUCUACAGUCCGACGAUCACGGUCCAUAGCCUGAAGAUCAACUUGCGGAUUCCAAUCUGAGUCAUACAAAAUUACUACAUCAGCAGUUGCAAGAUUGAUGCCCAGACCACCAGCACGUGUGCUUAGCAUAAAUACAAACAACAGAGGAUUGAGCAUCA
B14: 76392888_76393008_1816_CDS_ENSMUSG00000034098_ENSMUST00000038364|mouse|control|control (ssRNA)
RNA: GGGAGUUCUACAGUCCGACGAUCGAGCUUCGGUGUAAUGUCAAUCCCAUUCUUCAGCCAGCCAAGCUGAGGGUCUGGAAUGCCCUCGGCAUGGCACCUAAGGCUUGCAGUUACACCAGGUUCUCUGGCCUGACUCUCUGGAUACAACAGAGGAUUGAGCAUCA
B15: chr14:76904430:76904431:+_ENSMUSG00000022010_ENSMUST00000022587|mus_mus|mus_mus_mus_hu_True|8_58 (ssRNA)
RNA: GGGAGUUCUACAGUCCGACGAUCUGCAGCCAAAAACACCCUCGUGGAAAAAAAGAGGGAACACCAGCAGCCUUGUACAAACUAGAUAAAAUCUUCUGGCUUUCCGCAGCCCAGGGAGAAACAGAAAUGGUGCUGGCUAAUUUACAACAGAGGAUUGAGCAUCA
B16: chr1:46865451:46865452:-_ENSMUSG00000025986_ENSMUST00000027131|mus_hu|FALSE|FALSE (ssRNA)
RNA: GGGAGUUCUACAGUCCGACGAUCGCAUGUGCUGCUCUCAAAGUUUUGUUUUUGUUUUGAAGUUCAUAGAGUAGGAGGAAAGAAGAGUACUAAAUGAAAACAUUUUAGAUGGAAUGGAAAAGAGUUUGGCUCUUAUAUAUUUGACAACAGAGGAUUGAGCAUCA
B17: chr1:109605286:109605287:-_ENSG00000197780_ENST00000461096|hu_mus|hu_hu_hu_mus_True|18_28 (ssRNA)
RNA: GGGAGUUCUACAGUCCGACGAUCAAGUUUCAGAGUAACAUUCAGUAACCUCUUUAAAUGCAAUUAUCCUUAUUAUAAGCUAAGCAGAAUAAUAAUUUAAUACCGUAAGUAAAUACACACAAAACCUUGAACCGCGAAAAUGGUCAACAGAGGAUUGAGCAUCA
B18: chr5:151611259:151611260:+_ENSMUSG00000034021_ENSMUST00000016569|mus_hu|motif|central (ssRNA)
RNA: GGGAGUUCUACAGUCCGACGAUCCAUUUUCUGAACAUAACGUUCAAGAGGAAAUAUCUAUACACAAUAACAUUCGGGACGGUUAAAAACUCAUUCAAAUUACAGAAUUUUAUUGAUACAGUAGAUUAAUAAAAACUGAAAGGACAACAGAGGAUUGAGCAUCA
B19: chr2:128501614:128501615:-_ENSMUSG00000014355_ENSMUST00000014499|mus_hu|FALSE|FALSE (ssRNA)
RNA: GGGAGUUCUACAGUCCGACGAUCAGUCACAGGGGAAUCUCCUUUGGAGAGGCUUCUGAGAUGUGCUGUGAGGGAGCUGCUAGUGGCCACAUUCUGUGGGGUUCCCCCCUGUUCAGAGAACUUUAAAACAACAUUCUCUUCCUCCAACAGAGGAUUGAGCAUCA
B20: chr8:26196428:26196429:+_ENSG00000221914_ENST00000315985|hu_hu|motif|central (ssRNA)
RNA: GGGAGUUCUACAGUCCGACGAUCUUUGUUCUCCUGCUCCUGUUGAAAGAUGACAACUCUACCACCUUUAUCUCCUGUUGCGGGUAAUUCUCCAGAAUGAUUAAAUUCUACUGUAGAAAUUAUAUCUGCUUCUGCUACAUCAUCCAACAGAGGAUUGAGCAUCA
B21: chr14:63765801:63765802:-_ENSMUSG00000021273_ENSMUST00000054963|mus_hu|FALSE|FALSE (ssRNA)
RNA: GGGAGUUCUACAGUCCGACGAUCCUGCCUUGUUUUGCUAGAAGAUGGGUCUGAGUCGGGGAUUCUAUGAUAAAUCUCUUCCAUAUACUGAUAUAUGAUGGCUUUGACAGCUGGCAUAUUGGUGGCAUCCAUCAUCAGGGUCACCAACAGAGGAUUGAGCAUCA
B22: chr17:32491106:32491107:-_ENSMUSG00000024050_ENSMUST00000163107|mus_mus|motif|central (ssRNA)
RNA: GGGAGUUCUACAGUCCGACGAUCCAUUGAUAACCAAAAGGUGGCCACUGAAAAGGUUAAAAGGUCAAUUAGCUCCCGGUAUCGGGCUGGCCCAGGAUUGCAAAAUAAAAAGAUCCACGUUCCUUAUUCUCUACACAAAACGCACAACAGAGGAUUGAGCAUCA

This test deals with T1, UNK ZnF1-3. Briefly: nsRBNS (natural sequence RNA bind-n-seq); RBNS binding buffer (assumed for nsRBNS): 25 mM Tris pH 7.5, 150 mM KCl, 3 mM MgCl2, 0.01% Triton X-100, 500 ug/ml BSA, 20 U/ml SUPERase-In, 4 C; UNK is unkempt and MSI1 is Musashi-1; names of the RNAs are library labels; protein concentration not given here; high values mean tight binding.
On to B1, for which the binding signal was 0.913 enrichment R.

The molecule B2 registered a binding signal of 0.744 enrichment R.

Regarding B3, the binding signal worked out at 1.19 enrichment R.

B4 had a binding signal of 1.38 enrichment R.

B5 showed a binding signal of 1.08 enrichment R.

B6 showed a binding signal of 0.812 enrichment R.

Take B7: the binding signal was found to be 1.05 enrichment R.

As to B8, the binding signal is 1.6 enrichment R.

B9 returned a binding signal of 1.05 enrichment R.

The molecule B10 showed a binding signal of 2.14 enrichment R.

B11: the binding signal stood at 1.02 enrichment R.

Molecule B12 displayed a binding signal of 1.13 enrichment R.

In turn, B13 displayed a binding signal of 1.17 enrichment R.

Take B14: the binding signal came out at 0.258 enrichment R.

Consider B15, for which the binding signal is 2.16 enrichment R.

In turn, B16 showed a binding signal of 1.57 enrichment R.

For B17, the binding signal was 0.893 enrichment R.

On to B18, for which the binding signal came to 1.69 enrichment R.

For B19, the binding signal stood at 1.17 enrichment R.

Regarding B20, the binding signal was determined as 0.892 enrichment R.

In turn, B21 returned a binding signal of 0.938 enrichment R.

As to B22, the binding signal was 1.24 enrichment R.
